# “And” between values parts separate entries of the source, which are not always exact repeats. Identical values can stand only once. About 16,000 (4.4%) of roughly 360,000 compounds were called active. The inconclusive results got no clear call from the source; some entries with a clear call stand among them for comparison. The call rests on the fitted dose curve; in most records, active means well fitted inhibition curve with a large enough effect; inconclusive means small, poorly fitted or top-dose-only effect; inactive means no such curve, though single readings can be large or run the other way. A potency beside an inconclusive call is a rough fit, not a confirmed value.
# Target: Bromodomain adjacent to zinc finger domain protein 2B (Homo sapiens) (UniProt Q9UIF8)
# Sequence of UniProt Q9UIF8 (Q9UIF8 whole entry, looked up, the tested form may be a part): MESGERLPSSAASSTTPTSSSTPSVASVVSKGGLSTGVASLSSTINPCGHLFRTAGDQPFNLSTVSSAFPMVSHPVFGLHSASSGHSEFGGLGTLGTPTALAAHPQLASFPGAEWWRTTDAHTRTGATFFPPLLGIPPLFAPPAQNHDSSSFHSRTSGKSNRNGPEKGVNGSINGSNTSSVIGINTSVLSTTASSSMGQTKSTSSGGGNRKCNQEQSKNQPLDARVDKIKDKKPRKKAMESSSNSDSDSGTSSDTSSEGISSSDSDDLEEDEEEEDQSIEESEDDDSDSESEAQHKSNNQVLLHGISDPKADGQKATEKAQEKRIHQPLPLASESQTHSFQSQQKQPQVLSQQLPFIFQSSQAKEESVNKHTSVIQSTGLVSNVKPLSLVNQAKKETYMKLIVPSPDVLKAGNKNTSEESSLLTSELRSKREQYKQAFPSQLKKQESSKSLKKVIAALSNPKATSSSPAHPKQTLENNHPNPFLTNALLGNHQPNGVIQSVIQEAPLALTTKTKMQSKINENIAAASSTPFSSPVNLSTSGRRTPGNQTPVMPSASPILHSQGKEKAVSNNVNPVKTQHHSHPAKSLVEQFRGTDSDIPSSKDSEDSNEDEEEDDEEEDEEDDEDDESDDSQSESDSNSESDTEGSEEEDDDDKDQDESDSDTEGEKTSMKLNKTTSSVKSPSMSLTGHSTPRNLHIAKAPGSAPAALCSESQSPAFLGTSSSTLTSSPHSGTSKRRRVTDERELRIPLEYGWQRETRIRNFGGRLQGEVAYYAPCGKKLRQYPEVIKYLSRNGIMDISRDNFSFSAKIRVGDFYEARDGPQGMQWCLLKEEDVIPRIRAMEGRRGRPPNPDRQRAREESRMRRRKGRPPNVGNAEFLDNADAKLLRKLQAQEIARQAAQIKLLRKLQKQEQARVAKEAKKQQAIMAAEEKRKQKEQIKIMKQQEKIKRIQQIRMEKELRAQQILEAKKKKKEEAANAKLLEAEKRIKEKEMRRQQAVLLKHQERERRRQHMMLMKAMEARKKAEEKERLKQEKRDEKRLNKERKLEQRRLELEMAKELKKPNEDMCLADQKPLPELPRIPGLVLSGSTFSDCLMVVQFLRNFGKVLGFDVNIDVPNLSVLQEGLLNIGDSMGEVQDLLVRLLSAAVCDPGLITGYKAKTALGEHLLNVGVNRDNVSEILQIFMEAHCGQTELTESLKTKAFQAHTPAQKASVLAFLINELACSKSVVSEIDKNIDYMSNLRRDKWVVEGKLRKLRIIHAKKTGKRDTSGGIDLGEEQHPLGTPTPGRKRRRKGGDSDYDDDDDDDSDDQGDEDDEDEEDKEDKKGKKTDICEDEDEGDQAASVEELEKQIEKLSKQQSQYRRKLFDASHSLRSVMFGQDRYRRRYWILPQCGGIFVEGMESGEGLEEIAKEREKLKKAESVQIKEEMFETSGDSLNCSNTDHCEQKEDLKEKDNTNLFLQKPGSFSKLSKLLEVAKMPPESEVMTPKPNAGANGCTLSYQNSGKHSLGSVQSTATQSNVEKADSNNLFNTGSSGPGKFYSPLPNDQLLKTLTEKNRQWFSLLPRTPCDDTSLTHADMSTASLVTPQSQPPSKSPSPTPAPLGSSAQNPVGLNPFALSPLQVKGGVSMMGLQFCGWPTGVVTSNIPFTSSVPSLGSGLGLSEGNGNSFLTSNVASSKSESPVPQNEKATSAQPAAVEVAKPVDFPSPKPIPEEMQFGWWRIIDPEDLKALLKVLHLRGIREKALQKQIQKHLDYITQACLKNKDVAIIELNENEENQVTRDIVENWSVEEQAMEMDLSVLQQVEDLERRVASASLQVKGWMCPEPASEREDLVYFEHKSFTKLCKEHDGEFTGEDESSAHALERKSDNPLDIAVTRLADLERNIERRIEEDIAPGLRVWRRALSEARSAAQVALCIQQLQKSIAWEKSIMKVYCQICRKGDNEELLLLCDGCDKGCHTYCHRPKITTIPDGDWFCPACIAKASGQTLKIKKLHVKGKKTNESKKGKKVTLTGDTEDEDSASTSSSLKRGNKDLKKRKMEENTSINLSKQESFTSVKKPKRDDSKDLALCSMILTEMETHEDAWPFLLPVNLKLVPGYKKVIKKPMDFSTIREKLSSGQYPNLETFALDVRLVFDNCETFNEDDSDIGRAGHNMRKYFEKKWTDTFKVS
# Assay: qHTS Assay for Inhibitors of BAZ2B; further: nearly all actives have a fitted effect of over 60% in size
# Conditions: AlphaScreen BAZ2B-H3K14Ac peptide displacement; series mostly up to 114 µM
# Outline: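 Compounds, titrated to a top concentration of 110 uM, were incubated 30 min at room temperature with preformed BAZ2B/acetyl-K14 H3 peptide complex (50 nM each). Proximity signal was measured by AlphaScreen after 20 min with beads.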
# Potency means the concentration at half of the fitted maximal effect; tags describe the fitted curve by direction and shape.
row,SMILES,Potency
1,C/C(CC(=O)Nc1ccc(N(C)C)cc1)=N\NC(=O)c1ccc(Cl)cc1Cl,"inconclusive: 70.8 µM [inhibitor, single point]"
2,Cc1ccccc1CSc1ccc(-c2cccs2)nn1,inactive
3,COC(=O)c1cc(CN2CCN(c3ccccc3)CC2)ccc1O,inactive
4,Cc1ccc(/C=N/NC(=O)Cc2cccn2C)cc1,"inconclusive: 79.4 µM [inhibitor, single point]"
5,O=C(CN1CCN(c2ccc([N+](=O)[O-])cc2)CC1)c1ccccc1,inactive
6,COc1cccc(-c2cn3ncsc3n2)c1,"inconclusive: 8.91 µM [inhibitor, full curve, poor fit]"
7,N#Cc1c(N)sc2c1CCCCCC2,"inconclusive: 50.1 µM [inhibitor, partial curve]"
8,Cc1cc(C)cc(C(=O)N2CC(=O)Nc3ccccc32)c1,"inconclusive: 100 µM [inhibitor, single point]"
9,COc1ccccc1S(=O)(=O)Cc1ccc(C(=O)NCCN2CCCCCC2)o1,inactive
10,Cc1cc(Cl)ccc1NC(=S)N1CCN(Cc2ccc3c(c2)OCO3)CC1,"inconclusive: 44.7 µM [inhibitor, partial curve]"
11,CSc1cccc(NC(=O)c2ccc(Cl)nc2)c1,"inconclusive: 89.1 µM [inhibitor, single point]"
12,CCOC(=O)c1nn(-c2ccccc2)c(=O)c2c(N)sc(C)c12,"inconclusive: 39.8 µM [inhibitor, full curve, poor fit]"
13,O=C(Nc1cccc2cccnc12)c1cccc([N+](=O)[O-])c1,inactive
14,Cc1nc2ccccn2c1C(=O)N/N=C/c1cc(C)n(-c2ccc(Br)cc2)c1C,active: 44.7 µM
15,Cc1ccc(S(=O)(=O)N2[C@@H](c3cccc(Cl)c3)C(C(=O)O)=CC[C@H]2c2ccc(C(C)C)cc2)cc1,"inconclusive: 89.1 µM [inhibitor, single point]"
16,O=C(/C=C/c1ccc([N+](=O)[O-])cc1)OCc1cnc(-c2ccccc2)o1,"inconclusive: 63.1 µM [inhibitor, partial curve, poor fit]"
17,Cc1cc(=O)oc2c(C(=O)/C=C\c3cccs3)c(O)ccc12,"inconclusive: 44.7 µM [inhibitor, partial curve]"
18,COc1ccc(CNC(=O)COC(=O)[C@H](Cc2c[nH]c3ccccc23)NC(=O)c2cccs2)cc1,"inconclusive: 39.8 µM [inhibitor, partial curve]"
19,Cc1ccc(/C=N/NC(=O)Cn2nnc(N)n2)o1,inactive
20,O=C(CSc1nnc(-c2ccc(C(F)(F)F)cn2)o1)Nc1ccccc1Cl,active: 17.8 µM
21,COCCOC(=O)c1[nH]c2c(c1C)C(=O)CC(c1ccco1)C2 (configuration not stated),active: 50.1 µM
22,COCCN(C(=O)c1cc2c(s1)CCC2)c1c(N)n(CC(C)C)c(=O)[nH]c1=O,active: 56.2 µM
23,CCSc1nc2c([nH]c3ccccc32)c(=O)n1-c1ccc(F)cc1,inactive
24,Cc1csc(Sc2ccc([N+](=O)[O-])cc2C(=O)OCC(=O)NC(=O)NC(C)(C)C)n1,"inconclusive: 31.6 µM [inhibitor, full curve]"

row,SMILES,Potency
1,Cc1cc(NC(=O)CCC(=O)N(c2ccccc2)C(C(=O)NC(C)(C)C)c2ccccc2Cl)no1 (configuration not stated),"inconclusive: 89.1 µM [inhibitor, single point]"
2,COc1ccc(-c2cc(-c3ccco3)[nH]c(=O)c2C#N)cc1OC,active: 56.2 µM
3,CCC(=O)Nc1cc2nn(-c3ccc(OC)cc3)nc2cc1C,"inconclusive: 89.1 µM [inhibitor, single point]"
4,Cn1c(CNC(=O)c2ccco2)nnc1SCCOc1ccccc1,inactive
5,COc1ccc(NC(=O)CN(c2ccccc2)S(=O)(=O)N(C)C)cc1OC,"inconclusive: 56.2 µM [inhibitor, partial curve]"
6,Cc1ccc(-c2cc(C(=O)N/N=C\c3cnn(C)c3C)c3ccccc3n2)cc1C,inactive
7,COc1ccc(NC(=O)CSc2nc3sc(C)cc3c(=O)n2C)c(OC)c1,"inconclusive: 79.4 µM [inhibitor, single point]"
8,NC(=O)c1ccnc2c(O)cccc12,active: 1.58 µM and active: 1.78 µM
9,Cc1cc2cc(CNC(=O)c3cccc([N+](=O)[O-])c3)ccc2[nH]1,"inconclusive: 44.7 µM [inhibitor, partial curve]"
10,Cc1cc(C)c(OCCOCCN2CCN(C)CC2)c(Cl)c1,active: 31.6 µM
11,Cc1ccc2[nH]c3c(c2c1)CCc1cn[nH]c1-3,"inconclusive: 56.2 µM [inhibitor, partial curve]"
12,c1cnc(N2CCN(c3ncc4c(n3)CCNC4)CC2)nc1,"inconclusive: 89.1 µM [inhibitor, single point]"
13,CC(C)CC(=O)Nc1ccc(C(=O)COC(=O)CN2C(=O)NC3(CCCCC3C)C2=O)cc1 (configuration not stated),"inconclusive: 89.1 µM [inhibitor, single point]"
14,COc1ccc(N2CCN(C(=O)c3oc4ccccc4c3NC(=O)CCc3cc(OC)no3)CC2)cc1,"inconclusive: 25.1 µM [inhibitor, single point]"
15,Cc1ccc(NCc2n[nH]c(=S)n2-c2ccccc2)c(C)c1,"inconclusive: 35.5 µM [inhibitor, partial curve]"
16,O=c1/c(=C\c2ccc(O)cc2)sc2nc(-c3ccccc3)c(-c3ccccc3)n12,"inconclusive: 112 µM [inhibitor, partial curve, poor fit]"
17,Cc1cccc(N=Cc2c(O)cc(C)oc2=O)c1,inactive
18,COc1ccc(C)cc1COC(=O)c1[nH]c(C)c(C(C)=O)c1C,inactive
19,CCn1nc(CC(=O)Nc2ccc(-n3cnnn3)c(OC)c2)c2ccccc2c1=O,"inconclusive: 79.4 µM [inhibitor, single point]"
20,CCC(=O)OC1(C)C(=O)C=C2C=C(c3ccsc3)OC=C2C1=O (configuration not stated),active: 50.1 µM
21,Cn1cc(S(=O)(=O)N2CCCCCC2)cc1C(=O)Nc1ccc(Cl)c(C(F)(F)F)c1,"inconclusive: 25.1 µM [inhibitor, single point]"
22,CCOc1ccc(OCCOCCN2CCc3ccccc3C2)cc1,active: 56.2 µM
23,CCOC(=O)c1[nH]c2ccccc2c1NC(=S)Nc1cccc(C)c1,"inconclusive: 50.1 µM [inhibitor, partial curve]"
24,COc1ccc(CNc2ccc3c(c2)ncn3-c2ccccc2OC)cc1,active: 39.8 µM

row,SMILES,Potency
1,CCOc1ccc(S(=O)(=O)NCC2CCCO2)c2ccccc12 (configuration not stated),inactive
2,CCc1cccc(C)c1NC(=O)Cn1nnc(-c2nc(-c3ccccc3F)no2)c1N,active: 56.2 µM
3,CCN1C(=O)[C@@H]2[C@@H](c3ccc(-c4ccc(OC)cc4)cc3)N3CCC[C@@]3(C(=O)OC)[C@@H]2C1=O,"inconclusive: 89.1 µM [inhibitor, single point]"
4,CCOc1ccc(OCCSc2nc(C)cc(=O)[nH]2)cc1,inactive
5,O=C(O)c1cc(N/N=C/C(Cl)=C/c2ccccc2)ccc1Cl,active: 35.5 µM
6,N#Cc1ccc(C(=O)N/N=C/c2cn(CC(=O)O)c3ccccc23)c(F)c1,"inconclusive: 100 µM [inhibitor, single point]"
7,O=C(C1CCCN(Cc2cccnc2)C1)N1CCCCC1 (configuration not stated),active: 22.4 µM
8,CCc1cc(-c2n[nH]c(C)c2Oc2ccc(C(C)C)cc2)c(O)cc1O,"inconclusive: 39.8 µM [inhibitor, partial curve]"
9,CC(C)/C=N/Nc1nc(-c2ccc(Br)cc2)cs1,"inconclusive: 89.1 µM [inhibitor, single point]"
10,N/C(=N\OS(=O)(=O)c1ccccc1)c1ccccn1,active: 22.4 µM
11,COc1ccc(N2CCN(C(=O)NC34CC5CC(CC(C5)C3)C4)CC2)cc1,"inconclusive: 89.1 µM [inhibitor, single point]"
12,Nc1ccc2c(c1)OC1(CCCC1)O2,active: 39.8 µM
13,Cc1cc(C(=O)Nc2ccc(Cl)cc2)c(C)n1-c1ccccc1,"inconclusive: 31.6 µM [inhibitor, partial curve]"
14,CCNC(=S)N=Nc1c(O)n(Cc2ccc(Cl)cc2)c2ccccc12,"inconclusive: 7.94 µM [inhibitor, full curve]"
15,O=[N+]([O-])c1cc(-c2nc(-c3ccccc3)no2)ccc1NCc1ccco1,"inconclusive: 79.4 µM [inhibitor, single point]"
16,Cc1oc(CC(C)C)c(CN2CCCC2)c1C(=O)O,"inconclusive: 89.1 µM [inhibitor, single point]"
17,Cc1ccc2oc(C(=O)N(C)Cc3ccc(C)o3)c(C)c2c1,inactive
18,Cc1ccc(-c2noc(-c3ccc(N4CCOCC4)c([N+](=O)[O-])c3)n2)cc1,"inconclusive: 89.1 µM [inhibitor, single point]"
19,COc1cc(OC)c(C(=O)Nc2ccc(N(C)C)cc2)cc1OC,active: 50.1 µM
20,CC1(C)N=C(N)N=C(N)N1c1ccc(OCCCOc2ccccc2)c(Cl)c1,"inconclusive: 79.4 µM [inhibitor, single point]"
21,CCN(CC)c1ccc(/C=N/NC(=O)c2ccc3nc[nH]c3c2)cc1,"inconclusive: 70.8 µM [inhibitor, single point]"
22,COc1ccccc1/C=C1\SC(=S)N(CCC(=O)N2CCN(C)CC2)C1=O,"inconclusive: 50.1 µM [inhibitor, partial curve]"
23,CC1(C)Cc2c(cnn2-c2ccccc2)-c2c1c1ccccc1n2CC(O)CCl (configuration not stated),"inconclusive: 39.8 µM [inhibitor, partial curve]"
24,O=C(NCc1ccccn1)c1ccc(Cl)c(S(=O)(=O)N2CCCCCC2)c1,inactive
